# Laboratory results from the RNAGym collection of RNA variant scans (doi:10.7554/elife.90254).
# The source gives no read counts; variants with many changes may rest on few reads.
# B1: LINE1-mini (parent)
# chain: GGCAGAGCUCAACACAGCGUGGCAAAGUGGCUGUGGCUAGACUGCC
# Variants of: B1
# Test: self-cleavage, relative activity (ratio to wild type); higher = more cleavage; in vitro, sequencing; the parent is a self-cleaving ribozyme
row,Variant,self-cleavage
1,A24U A41C U43C,0.17
2,C23U A26G G30C U32A C37A G44C,0.08
3,A25C U28A A39G A41U,0.02
4,A25C U32G G40A,0.13
5,A24C A26C C42A,0.11
6,C23U G27A A39C C45G,0.06
7,A24G G35C A41C,0.03
8,A24G G29A C45A,0.62
9,C23U G33A G44U,0.09
10,A24G A26C A41C,0.05
11,A24U A25G G40A,0.1
12,C23U G27A C31U G36A A39G,0.02
13,A24C A39U C42G C45A,0.03
14,A24G G35U C46A,0.49
15,A24G G27U C46U,1.32
16,A25C G30U U34C U38A C42A,0.01
17,A24G G35U G36C,0.02
18,A24U G27A C31A,0.23
19,A25G G35C U43A,0.06
20,A24U A26C U32G,0.15
21,C23U G40U C46U,0.16
22,A24C U28G C37A U43C,0.01
23,A24C A26C A41U,0.07
24,A24G U38A G40U A41U C46A,0.06

row,Variant,self-cleavage
1,A25G U28G G29U C37G,0
2,C23U C37A A39G,0.01
3,A24U C31A U43C,0
4,A24U A26U G36C G40U G44U,0.04
5,C23U G29U U43A C46U,0.01
6,A24U G40U C42A,0.08
7,A25G C31A A39U G44C,0.01
8,A25G G33U U34G C42A,0.01
9,C23U A24C G30U C42A,0.1
10,A24C C31A G35A,0.16
11,C23U U28G A41G,0.56
12,C23U G29A G44A C45A,0.06
13,C23U G27C C42A,0.21
14,A25G C37U U38G,0.01
15,A24G G33U G36A,0.07
16,C23U G36A G40C C42A U43A,0.09
17,A24G G30C G36C,0.02
18,A24C U28A C37G,0.03
19,A24U G30U G44A,0.08
20,A25G C42G U43C,0.05
21,A24C C31U G40A A41G,0.02
22,A25G G36A C37A,0.06
23,C23U G27C U34G G40A,0.01
24,C23U A26C G30U U43A,0.07

row,Variant,self-cleavage
1,A25C A26G C31U U34A,0.01
2,A25C U28A G35C G44C,0.06
3,A25U A26C C31U G33U A41U,0.05
4,A24U G27A U34G,0.34
5,A25C C31G G40U,0
6,C23U G27U U34A G35C G36A,0.27
7,A24G G27U U34A,0.06
8,A24G U28A G33C,0.15
9,A25C G27C C31A U32C G35U,0.03
10,C23U U32G U38A A41C,0
11,A24C G35C G40U,0.02
12,A24G G27A G40C,0.21
13,C23G U34C U38A,0.44
14,A24U G27U G33A C42A,0.08
15,A24C G35C C42G G44A,0
16,A24G U32C U34G,0.21
17,A25G C31A U32C C45U,0.11
18,A24G A25C C31A A41G,0.02
19,A25G G29A G30A G36A,0.18
20,C23U G30C U43A G44U,0.18
21,A25C G40C C45G,0.03
22,A25C U28G G30A,0.41
23,A25C A26U U43C,0.08
24,C23U A24C G27C U43A,0.06

row,Variant,self-cleavage
1,C23U G35A A41C,0.09
2,A24U G33A U43C,0
3,C23U G30A U34C,0.16
4,A25G A39C G40A U43A,0.03
5,A25G G27U C31A,0.11
6,A25C U28C C31G C46U,0.04
7,A25G G33A C45U,0.01
8,A24G G36U C37G,0.02
9,A24U G44A C45A,0.03
10,A24G G29U U38G C42U,0.05
11,A25C G40U A41G C42A,0.06
12,A25C G30A C37U,0.02
13,A24U C42A U43A,0.09
14,C23U A25C G30A,0.65
15,A25C G30C G33A,0.06
16,A24U A25U C31G C46G,0.01
17,A24G C42U C45G,0.06
18,C23U A24C A25U,0.78
19,C23U A24U G35U U43A,0.1
20,A24C C42G G44C,0.1
21,C23U A25G C42U,0.17
22,A25G G35C G36A A41U,0.17
23,A24U G33C C37A A39G C45U,0.01
24,A24C C31A G33A C45U,0.14

row,Variant,self-cleavage
1,A24C G35A G36A C42A,0.01
2,A24U U32C U43G C46A,0.02
3,A24G A26U G29A C37U,0.04
4,A24U G40C G44C,0.06
5,A24C G27A U43G G44U,0.05
6,C23U A26G G27U,0.78
7,A25G G33U U34G G44U,0.03
8,A24G C31G U38C,0.04
9,A25G A26C U38C,0.07
10,A24G G40C G44C C45U C46A,0.05
11,C23U G29A A41G,0.12
12,A24G G35U C42U,0.06
13,A25C G29C C46U,0.02
14,A24U G35U C42G,0.02
15,C23U C31A U32A,0.06
16,C23U A24G G44C,0.11
17,A24C A26C G33U,0.13
18,A24C G29A U32A G40A,0.03
19,A24C U34A C46U,0.07
20,A25C G33A U38C C45A,0.03
21,A25G G27C U28C U32C G33U U43A,0.01
22,C23U A26U A41U,2.28
23,C23U U38G G40U,0.02
24,A24G A25G A39G,0.15

row,Variant,self-cleavage
1,A24C G27C C31A G44U,0.01
2,A24G U32A G40A,0.07
3,A25G A26U C37U,0.03
4,A24C C37A G40U A41U,0
5,A24C U34A C42U,0.04
6,C23U C31G A39G C42A,0.13
7,C23U A24C A26U G27U,1.07
8,A25C U32A C42U,0.03
9,A24G C37A A41U,0.13
10,A24G G30C C31U U32G C37U,0.04
11,A25C A26G A39C,0.08
12,A24C U34C G36U G44C,0.03
13,A25C G27U C37U,0.07
14,A25C G27A G29C C31G,2.78
15,A25C G36A A39G,0.16
16,A25G G35U C46A,0.08
17,A24G U28C A41C G44A,0
18,A24U U32C C46A,0.07
19,A24U G27U U34C C37A G44A,0.03
20,A24U G33C U34A G36U,0.1
21,A25C C31G G36U C42U,0.02
22,A25C A26C G27A G44C C45A,0.05
23,A24C A25C C31A,0.03
24,A25C G27U C45G,1.16

row,Variant,self-cleavage
1,A24C G36A C45U,0.05
2,A24U U34A C46U,0.02
3,A24C U38A A41C C46A,0.02
4,A24G G30U G33U C42A,0.01
5,A24U C42U C45U,0.56
6,A24C U34C G35U C46U,0.04
7,C23U A39G C46U,0.13
8,A24G A25C A39U,0.07
9,A24U G29C C31G C42A,0.14
10,A24G G29C U38C,0.11
11,A24G A39C C46G,0.36
12,A24C G29U G30U G36U C42A C45A,0.03
13,A24U C31U C46A,0.24
14,A24C G29U U34C C42U,0.01
15,C23U U28C G35A C37G U38G,0.04
16,A24U U43G C45A C46G,0.05
17,A25C C31U C45G,0.03
18,C23U G40U C45U,0.52
19,A24U G29C U43G C45G,0.14
20,A25G A41U U43G,0.02
21,C23U A24C A26G C31U,0.21
22,A25C C37G A41G,0.01
23,C23U U34G C42G,0.01
